In all, about 52,000 compounds went through this assay and about 1,700 (3.3%) were called active. No stated cut-off is given here; in the data, active means survival mostly below about 52% (no sharp cut-off); inactive means mostly above about 56%. This is one part of the list.

The values below come from PubChem BioAssay AID463173 (ICCB-Longwood Screening Facility, Harvard Medical School, 2010).

This assay has as its system Wild type. Kind of assay: S. aureus survival, RN4220 and DeltatarO strains – OD600, teichoic acid synthesis inhibitors, primary screen (AID 463173). The settings on record: S. aureus RN4220 wild type/DeltatarO growth, OD600, 18 h, active compounds read low, screened at 18.75 µg/mL (by protocol).
With `Cc1ccc(S(=O)(=O)c2nnn(CC(=O)Nc3ccccc3C)c2N)cc1C`, the survival was inactive: 92%. As for `CCC(=O)Nc1ccc2nc(SCCOc3cccc(C)c3)sc2c1`, the figure is inactive: 116%. To `CCCCSCc1ccc(C(=O)O)o1` belongs inactive: 104%; to `O=C(CCC1N=C2c3ccccc3N=C(SCc3ccccc3Cl)N2C1=O)NCc1cccs1` (centres undefined), inactive: 71%; to `O=C(NCc1ccccc1F)C(=O)NCC(c1cccs1)S(=O)(=O)c1cccs1` (centres undefined), inactive: 73%. To `CC(C)Cc1ccc(S(=O)(=O)Nc2ccc3[nH]c(=O)[nH]c3c2)cc1` belongs inactive: 92%; to `CCOc1ccc(OCC)c(NC(=O)c2cnc3c(-c4ccccc4)c(C)nn3c2C)c1`, inactive: 63%. On to `O=c1c2oc3ccccc3c2n(Cc2cccc(Cl)c2)c(=O)n1Cc1ccc2c(c1)OCO2`, for which the survival is inactive: 92%. In the case of `COC(=O)c1cc2oc(C)cc2n1Cc1cccc(Cl)c1`, the survival was active: -2%. As for `Cc1ccc(-n2c(=O)c3c(c4cc(C)ccc4n3C)n(CC(=O)NCCC3=CCCCC3)c2=O)cc1`, the figure is inactive: 66%; as for `O=C(NCc1cccc(Cl)c1)c1ccc(CS(=O)Cc2ccccc2Cl)o1` (centres undefined), inactive: 65%; as for `FC(F)(F)c1nnc2c3ccccc3nc(-c3ccccc3)n12`, inactive: 50%. To `COc1ccccc1OCC(=O)NCC1(N2CCOCC2)CCCCC1` belongs inactive: 87%; to `O=C(NC1CCN(C(=O)NCc2ccccc2)CC1)c1ccco1`, inactive: 107%. As for `Cc1nc(C)c(CCNS(=O)(=O)c2ccc(C)c(C)c2)s1`, the figure is inactive: 99%; as for `CCOc1ccccc1NC(=O)c1c(NCc2ccc(C)o2)sc2c1CCCCC2`, inactive: 66%; as for `CC(C)C(=O)CC(c1ccccc1)C1C(=O)NC(=O)NC1=O` (centres undefined), inactive: 105%. `Cc1ccc(Cc2nc3ccccc3nc2SCC(=O)N2CCCCC2)cc1`: the survival was inactive: 73%. To `O=c1oc2c(F)cc(F)cc2cc1S(=O)(=O)c1ccc(F)cc1` belongs inactive: 104%.

Regarding `CCOc1ccc(CN2CCN(S(=O)(=O)c3ccc(Cl)cc3)CC2)cc1`, the survival is inactive: 55%. To `CCOc1ccc(N(CC)C(=O)c2cc3c(=O)oc4ccccc4c3s2)cc1` belongs inactive: 64%; to `O=C(Cn1cc(S(=O)(=O)c2ccc(F)cc2)c(=O)c2cc3c(cc21)OCO3)Nc1ccccc1`, inactive: 85%; to `Cc1ccn2c(=O)c(C(=O)Nc3ccc(F)c(C(F)(F)F)c3)cnc2c1`, inactive: 84%. As for `Cc1oc(-c2ccccc2F)nc1CN1CCC(C(=O)NCCc2ccc(Cl)cc2)CC1`, the figure is inactive: 79%; as for `CCOC(=O)Cn1nnc(-c2ccccc2)n1`, inactive: 98%.

On to `CCOc1ccc(-c2nonc2NC(=O)c2oc3ccc(Cl)cc3c2C)cc1`, for which the survival is inactive: 85%. Take `Cc1cccc(NC(=O)C(=O)NCC(c2cccnc2)N2CCc3ccccc32)c1C` (centres undefined): the survival is inactive: 81%. As for `N#CCC(=O)Nc1nccs1`, the figure is inactive: 108%; as for `CCOC(=O)c1c(CC(C)C)csc1NC(C)=O`, inactive: 104%. Regarding `COc1ccc(-c2nnn3c2nc(NCc2ccccc2)c2ccccc23)cc1`, the survival was inactive: 96%. In the case of `COc1cccc(NC(=O)c2oc3ccccc3c2NC(=O)COc2ccccc2C)c1`, the survival is inactive: 125%.

As for `COC(=O)c1ccccc1NC(=O)CCCn1nc(C)c2sc3ccccc3c2c1=O`, the survival is inactive: 82%. To `CC1=C(C(=O)Nc2ccc(C)cc2C)C(CC(C)C)n2nc(SCc3ccccc3C)nc2N1` (centres undefined) belongs inactive: 95%. As for `CCOc1ccc(-c2cc(C(=O)NCc3ccc(OCC)c(OC)c3)[nH]n2)cc1`, the survival is inactive: 58%.

As to `O=c1c2sc3ccccc3c2n(Cc2ccc(F)cc2)c(=O)n1Cc1ccccc1`, the survival is inactive: 140%. As for `CCc1cccc(CC)c1NC(=O)CCS(=O)(=O)c1ccc(Br)cc1`, the figure is inactive: 127%; as for `Cc1ccc(NC(=O)CSc2ncccc2C(=O)Oc2ccccc2Cl)cc1Cl`, inactive: 74%.

In the case of `N=c1c2c3c(sc2ncn1CCCn1ccnc1)CCCCC3`, the survival is inactive: 105%. As for `COc1ccc2[nH]cc(CCNC(=O)Nc3c(C)cccc3C)c2c1`, the figure is inactive: 96%; as for `Cc1cc(C)n2nc(SCC(=O)Nc3ccc(O)cc3)nc2n1`, inactive: 82%. As for `Cc1cc(NC(=O)CN(C)S(=O)(=O)c2ccc3c(c2)CCCC(=O)N3)ccc1Br`, the survival is inactive: 55%.

For the compound `Cc1ccccc1-c1nc2c(c(SCc3cccc(Cl)c3)n1)Cc1c(CO)cnc(C)c1O2`, the survival is inactive: 77%.

Consider `CCOC(=O)c1cc(-c2ccccc2)n(CCC(=O)Nc2ccc(OC)c(Cl)c2)c1C`, for which the survival is inactive: 101%. Regarding `COc1cc(C)ccc1OCCSc1nc2ccc(NC(=O)c3ccc4c(c3)OCO4)cc2s1`, the survival was inactive: 85%. To `O=C(Nc1cc(Cl)ccc1O)c1nc2ncccn2n1` belongs inactive: 106%; to `O=C(O)C12CC3CC(CC(S)(C3)C1)C2`, inactive: 106%; to `COc1cc(-c2nc(Cn3nnc(C(=O)Nc4ccccc4C)c3C)c(C)o2)cc(OC)c1OC`, inactive: 77%. To `CCc1ccc(NC(=O)Cn2c(=O)n(CCCC(=O)NCc3ccccc3OC)c(=O)c3ccccc32)cc1` belongs inactive: 133%; to `Cc1ccc(C)c(NC(=O)c2ccc(=O)n(Cc3ccc(F)cc3)c2)c1`, inactive: 110%; to `COc1ccc(C)cc1NC(=O)c1ccc2c(c1)N(Cc1cccc(Cl)c1)C(=O)c1ccccc1S2=O` (centres undefined), inactive: 101%.

For the compound `CC(=O)N1c2ccc(S(=O)(=O)N3CCCCCC3)cc2CC1C(=O)NCc1cccc(F)c1` (centres undefined), the survival was inactive: 65%. Take `CC1Oc2ccccc2N(CC(=O)NC2CC2)C1=O` (centres undefined): the survival was inactive: 106%. Consider `Clc1cccc(N2CCN(c3nc4ccccc4c4nc(-c5cccnc5)nn34)CC2)c1`, for which the survival is inactive: 79%. As for `Cc1ccc(S(=O)(=O)c2nc(-c3cccs3)oc2SC(C)c2ccccc2)cc1` (centres undefined), the figure is inactive: 44%; as for `CCCCC(=O)Nc1cc(-c2nc3ccccc3o2)ccc1OC`, inactive: 24%; as for `CCS(=O)(=O)N1CCc2cc(C(=O)N3CCN(c4ccccc4)CC3)ccc21`, inactive: 101%. To `CCOc1ccc(CC(=O)NCCS(=O)(=O)N2CCN(c3ccccc3OC)CC2)cc1` belongs inactive: 72%. To `CCOC(=O)c1noc2ncn(CC(=O)Nc3ccc(OC)c(Cl)c3)c(=O)c12` belongs inactive: 90%; to `Cc1cccc(CNC(=O)C2CCN(S(=O)(=O)c3cccc4nonc34)CC2)c1`, inactive: 51%.
